Experimental data: PubChem BioAssay AID1347071 (National Center for Advancing Translational Sciences (NCATS), 2019)
Screen size: about 410,000 compounds; about 260 (0.063%) were called active. The shares of active, inactive and inconclusive entries below differ from those in the screen. Calls follow the shape of the dose curve; as a rule, active = well fitted activation curve with a large enough effect; inconclusive = small, poorly fitted or top-dose-only effect; inactive = no such curve, though single readings can be large or run the other way. No potency is given beside an inconclusive call; the fits are too rough.
Potency is read from the fitted curve at half-maximal effect; tags tell the direction and shape of the fitted curve.

Assay: qHTS for compounds that reverse cellular toxicity of Amyloid beta (A-beta) peptide in yeast: Primary Screen; also: nearly all actives have a fitted effect of over 55% in size
Settings: yeast expressing A-beta42, growth rescue, OD600, 48 h; growth rescue: at 46.1 µM (top of the series), 0% DMSO, 100% iron-clioquinol control
Method in brief: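 Yeast A-beta toxicity model in growth medium with pinned compounds, 48 h at 30 C; growth read as absorbance at 600 nm. Normalized to FeCl3/clioquinol equimolar mix (positive) and DMSO (negative).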
For `CNc1nn(-c2cccc(Cl)c2)nc1N`, the Potency was “inactive”. In the case of `CC1CCCCN1S(=O)(=O)c1ccc(C(=O)Nc2nnc(C3CC3)o2)cc1` (stereo not drawn), the Potency is reported as inconclusive [activator, partial curve, poor fit]. With `CCOCc1nnc(NC(=O)c2cc(Cl)ccc2OC)s1` the Potency was “inactive”. For `Cc1nc(Cl)sc1C(=O)Nc1ccc(C(F)(F)F)cc1`, the Potency was inconclusive [activator, single point]. With `O=C(Nc1nc(-c2ccccn2)cs1)c1cc(Cl)ccc1[N+](=O)[O-]` the Potency was active: 12.6 µM. With `COc1ccc(/C=C/c2nc(C#N)c(N3CCC(C)CC3)o2)cc1OC` the Potency was inconclusive [activator, partial curve, poor fit]. With `O=C(COC(=O)c1cc([N+](=O)[O-])ccc1NCc1ccccc1)NCc1ccccc1Cl` the Potency was inconclusive [activator, single point]. With `Cc1ccc(NC(=O)CN(c2cc(C)cc(C)c2)S(=O)(=O)c2c(C)noc2C)nc1` the Potency was inconclusive [activator, single point]. For `COc1cc(OC)c(Nc2c3c(nc4nc(-c5cccs5)nn24)CCCC3)cc1Cl`, the Potency was “inactive”. In the case of `COc1ccc2sc(-c3ccc(SC)cc3)c(C#CC(C)(C)O)c2c1`, the Potency is reported as “inactive”. For `Cc1ccccc1OCC(=O)N1N=C(C(F)(F)F)CC1(O)C(C)(C)C` (stereo not drawn), the Potency was inconclusive [activator, partial curve, poor fit]. In the case of `CCNc1c(NC(=O)c2cc(OCC)c(OCC)c(OCC)c2)c(=O)oc2ccccc12`, the Potency is reported as “inactive”. In the case of `O=C1C(Cc2c[nH]c3ccccc23)NC(=S)N1C1CCCCC1` (stereo not drawn), the Potency is reported as inconclusive [activator, partial curve, poor fit]. With `Cc1ccc(NC(=S)Nc2cccc(-c3n[nH]c(=S)o3)c2)cc1` the Potency was inconclusive [activator, single point]. With `CCCCC1CCC(C(=O)N(C)CC(=O)Nc2cccc(OC)c2)CC1` (stereo not drawn) the Potency was inconclusive [activator, partial curve]. In the case of `S=C(NCc1cccs1)Nc1cc(Cl)cc(Cl)c1`, the Potency is reported as inconclusive [activator, single point]. For `Cc1ccc(OCc2nc3ccccc3n2Cc2ccccc2Cl)cc1`, the Potency was “inactive”. For `CCOc1ccc(NC(=S)Nc2ccccc2C2CC2)cc1`, the Potency was inconclusive [activator, partial curve, poor fit]. With `Cc1cccc(-n2nnnc2S(C)(=O)=O)c1` the Potency was “inactive”. For `Cc1cc(Nc2ncc(Cl)cc2Cl)n[nH]1`, the Potency was inconclusive [activator, partial curve, poor fit]. In the case of `O=c1c(S(=O)(=O)c2ccccc2)cn(Cc2ccc(F)cc2)c2cc(N3CCCCC3)c(F)cc12`, the Potency is reported as “inactive”. In the case of `Cn1nnnc1Sc1ncnc2scc(-c3cccc(C(F)(F)F)c3)c12`, the Potency is reported as “inactive”. In the case of `CC(C)c1ccc(CN2CCN(S(=O)(=O)c3ccc(Cl)s3)CC2)cc1`, the Potency is reported as inconclusive [activator, partial curve]. For `CN(Cc1ccc(C(C)(C)C)cc1)C(=O)C1CCN(C(=O)Nc2ccccc2)CC1`, the Potency was inconclusive [activator, partial curve, poor fit]. For `O=C(CN1CCN(C(=O)C2CCN(C(=O)/C=C/c3ccccc3)CC2)CC1)Nc1ccccc1Cl`, the Potency was inconclusive [activator, single point]. With `CCc1ccc(NC(=S)N(Cc2ccccc2)Cc2ccccn2)cc1` the Potency was active: 12.6 µM. In the case of `CC(OC(=O)CCc1ccccc1)C(=O)Nc1ccc(Cl)cn1` (stereo not drawn), the Potency is reported as inconclusive [activator, partial curve]. For `COc1ccc(C(=O)c2cc([N+](=O)[O-])ccc2N2CCOCC2)cc1`, the Potency was inconclusive [activator, single point]. With `CC(C)N(Cc1nccn1C)C(=O)c1cc(COc2cccc(C(F)(F)F)c2)on1` the Potency was “inactive”. With `COc1ccc(NC(=O)c2cc(-c3cc(Cl)ccc3C)n[nH]2)cc1OC` the Potency was “inactive”. In the case of `COc1ccccc1Nc1nc(C)c(C(=O)Nc2ccccc2)s1`, the Potency is reported as inconclusive [activator, partial curve, poor fit]. With `CCn1c(CNC(=O)c2cccs2)nnc1SCC(=O)NCCc1ccccc1` the Potency was inconclusive [activator, partial curve, poor fit]. For `Cc1ccc(C(=O)NCCSc2c(C)[nH]c3ccccc23)cc1[N+](=O)[O-]`, the Potency was inconclusive [activator, partial curve, poor fit]. In the case of `N#Cc1ccccc1Sc1ccccc1N`, the growth rescue is reported as inconclusive: -27.5% [activator]. With `COc1cccc(N2CC(O)=C(c3nc4ccccc4s3)C2=N)c1` the Potency was “inactive”. For `C=C1SC(Nc2c(C)cc(C)cc2C)=NC12CCCCC2`, the Potency was inconclusive [activator, partial curve, poor fit]. In the case of `CS(=O)(=O)N1CCc2cc(-c3csc(NC(=O)Cc4ccccc4)n3)ccc21`, the Potency is reported as inconclusive [activator, partial curve, poor fit]. In the case of `Cc1ccc(NC(=S)NC(=O)C2CCC2)cc1C`, the Potency is reported as inconclusive [activator, full curve]. In the case of `CN(Cc1ccccc1)S(=O)(=O)c1ccc(C(=O)Nc2nnc(C3CC3)o2)cc1`, the Potency is reported as inconclusive [activator, partial curve, poor fit]. With `CCC(C)n1c(=S)[nH]c2ccccc2c1=O` (stereo not drawn) the Potency was inconclusive [activator, partial curve]. In the case of `COc1ccc(NC(=O)C2CCCN(c3nnc(C)c4c(C)n(-c5ccccc5)nc34)C2)cc1Cl` (stereo not drawn), the Potency is reported as “inactive”. For `Cc1cccc(NC(=S)NCc2ccc3[nH]c4c(c3c2)CCCC4)c1`, the Potency was inconclusive [activator, single point]. In the case of `COc1ccc(C(N)=S)c(OC)c1`, the Potency is reported as inconclusive [activator, single point]. In the case of `CC(C)(C)c1ccc(C(O)c2ncc(-c3ccc4ccccc4c3)[nH]2)cc1` (stereo not drawn), the Potency is reported as inconclusive [activator, single point]. In the case of `COc1cc(C(=S)N2CCOCC2)cc(OC)c1OS(=O)(=O)c1ccc(NC(C)=O)cc1`, the Potency is reported as inconclusive [activator, partial curve, poor fit]. For `Cc1nn(Cc2ccc(Cl)c(Cl)c2)c(C)c1NC(=O)c1sc2ccccc2c1Cl`, the Potency was inconclusive [activator, full curve]. With `CC(C)OCCCNC(=O)C(=O)NCCCOC(C)C` the Potency was “inactive”. In the case of `O=C(CN1CCN(S(=O)(=O)c2ccccc2)CC1)N1CCc2ccccc21`, the Potency is reported as “inactive”. For `Cc1cc(NCc2ccccn2)n2ncc(-c3ccc(Cl)cc3)c2n1`, the Potency was “inactive”. In the case of `Cc1ccc(/C=C/c2nnc(-c3cccs3)o2)cc1`, the Potency is reported as “inactive”. In the case of `Cc1ccc(OCCOCCN2CCN(C)CC2)c(C(C)(C)C)c1`, the Potency is reported as “inactive”. In the case of `O=C(O)C1(Nc2ccc(Cl)cc2)CCCC1`, the Potency is reported as inconclusive [activator, full curve, poor fit]. With `Cc1nc(NCc2ccc3c(c2)OCO3)c2oc3ccccc3c2n1` the Potency was “inactive”. In the case of `COc1ccc(Cl)cc1C(=O)NCc1cnn(C)c1C`, the Potency is reported as inconclusive [activator, single point]. With `COc1cccc(NC(=O)CN2CCN(S(=O)(=O)c3ccc(C(C)C)cc3)CC2)c1` the Potency was inconclusive [activator, single point]. With `Cc1cccc(C)c1NC(=S)NCc1ccccc1` the Potency was inconclusive [activator, partial curve, poor fit]. With `COCCn1c(C)c(C)c(S(=O)(=O)c2ccccc2)c1N` the Potency was inconclusive [activator, partial curve, poor fit]. For `O=C(NCc1ccccc1Cl)[C@@H]1CCCN1S(=O)(=O)c1ccc(Cl)cc1`, the Potency was inconclusive [activator, partial curve, poor fit]. For `CCOC(=O)CNC(=O)c1ccccc1`, the Potency was inconclusive [activator, partial curve]. With `O=C(OCc1c(F)cccc1Cl)c1cc([N+](=O)[O-])ccc1N1CCOCC1` the Potency was inconclusive [activator, partial curve, poor fit]. In the case of `Cn1c(N)c(S(=O)(=O)c2ccc(Br)cc2)c2nc3ccccc3nc21`, the Potency is reported as inconclusive [activator, single point]. In the case of `COc1ccc(-c2csc(Nc3ccccc3)[n+]2Cc2ccccc2)cc1`, the Potency is reported as inconclusive [activator, partial curve]. For `CN(C)c1ccc(NC(=S)N2CCN(c3ncc(C(F)(F)F)cc3Cl)CC2)cc1`, the Potency was inconclusive [activator, partial curve, poor fit]. In the case of `Cc1[nH]c2ccccc2c1Cc1nnc(SCc2ccccc2)o1`, the Potency is reported as inconclusive [activator, single point]. For `CCn1c(Sc2ccc(N)cc2Cl)nc2ccccc21`, the Potency was inconclusive [activator, full curve, poor fit]. In the case of `CC(=O)Nc1ccccc1-c1nc2ccccc2nc1OCC(=O)c1ccc2ccccc2c1`, the Potency is reported as inconclusive [activator, partial curve, poor fit]. In the case of `S=c1[nH]nc(-c2cc(-c3ccsc3)n[nH]2)n1-c1cccc2ccccc12`, the Potency is reported as inconclusive [activator, single point]. With `COc1cc(/C=N/NC(=O)CN2CCCCC2)ccc1OCc1ccccc1` the Potency was inconclusive [activator, single point].
